The other results are listed elsewhere or left out. Many values rest on one well or one pass, so single values are uncertain.
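Also: stably firefly luciferase-GFP labeled cells in 96-well plates, viability read as luciferase photon flux after d-luciferin addition, treated wells normalized to vehicle wells, single-dose high-throughput screen.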

For the experiment, the system named is HCC-1187. Put plainly: cell viability relative to vehicle (% of vehicle); basal-like triple-negative breast cancer lines; higher = less cytotoxic. To be noted: 10 µM; 72 h.
Take `Oc1c(Br)cc(Br)c2cccnc12` [Broxyquinoline]: the cell viability was determined as 95.9.

`OCCOc1ccc(C(=C(CCCl)c2ccccc2)c2ccccc2)cc1` [Ospemifene]: the cell viability is 93.6.

In turn, `Cc1ccc(C(=O)N(CCCN)C(c2nc3cc(Cl)ccc3c(=O)n2Cc2ccccc2)C(C)C)cc1` (stereo not given) gave a cell viability of 24.6.

`CCN(CC)CCOC(=O)c1ccc(N)cc1` [Procaine] had a cell viability of 85.

`Clc1ccc(COC(Cn2ccnc2)c2ccc(Cl)cc2Cl)cc1.O=[N+]([O-])O` (stereo not given) [Econazole nitrate] displayed a cell viability of 96.8.

As to `Clc1ccc2c(c1)C(N1CCNCC1)=Nc1ccccc1O2` [Amoxapine], the cell viability came out at 80.9.

As for `COC1=C(OC)C(=O)C(CCCCCCCCCCO)=C(C)C1=O` [Idebenone], the cell viability turned out to be 93.7.

As to `Nc1ccn(CC(CO)OCP(=O)(O)O)c(=O)n1.O.O` (stereo not given) [Cidofovir dihydrate], the cell viability worked out at 77.1.

`CCOC(=O)C(CCc1ccccc1)NC(C)C(=O)N1C(=O)N(C)CC1C(=O)O.Cl` (stereo not given) [Imidapril HCl] returned a cell viability of 75.5.

`CCCCC(=O)N(Cc1ccc(-c2ccccc2-c2nnn[nH]2)cc1)[C@H](C(=O)O)C(C)C.CCOC(=O)[C@H](C)C[C@@H](Cc1ccc(-c2ccccc2)cc1)NC(=O)CCC(=O)O` came in with a cell viability of 93.4.

`CC(O)(P(=O)(O)O)P(=O)(O)O` [Etidronate] showed a cell viability of 91.6.

In turn, `CCn1cc(C(=O)O)c(=O)c2cnc(N3CCCC3)nc21` [Piromidic Acid] came in with a cell viability of 81.1.

On to `COC(=O)C1=COC(O)C2C(CO)=CCC12` (stereo not given) [Genipin], for which the cell viability stood at 109.

As for `O=C1OC(C(O)CO)C(O)=C1O` (stereo not given) [Vitamin C], the cell viability came out at 113.

`Cc1cc(=O)[nH]c(=S)[nH]1` [Methylthiouracil] returned a cell viability of 96.5.

`CC(C)N=c1cc2n(-c3ccc(Cl)cc3)c3ccccc3nc-2cc1Nc1ccc(Cl)cc1` [Clofazimine] showed a cell viability of 84.8.

Regarding `NS(=O)(=O)c1cc2c(cc1Cl)NC=NS2(=O)=O` [Chlorothiazide], the cell viability was determined as 113.

Turning to `CCn1cc(C(=O)O)c(=O)c2cc(F)c(N3CCNC(C)C3)c(F)c21.Cl` (stereo not given) [Lomefloxacin HCl], the cell viability was 73.2.

Turning to `Nc1ncnc2c1ncn2C1OC(CO)C(O)C1O` (stereo not given) [Vidarabine], the cell viability was determined as 108.

For `Cc1ccc(=O)n(-c2ccccc2)c1` [Pirfenidone], the cell viability is 90.1.

In the case of `CCCCc1oc2ccc(NS(C)(=O)=O)cc2c1C(=O)c1ccc(OCCCN(CCCC)CCCC)cc1.Cl` [Dronedarone HCl], the cell viability came out at 96.

For `COc1cccc2c1C(=O)c1c(O)c3c(c(O)c1C2=O)CC(O)(C(=O)CO)CC3OC1CC(N)C(O)C(C)O1.Cl` (stereo not given) [Epirubicin HCl], the cell viability was 16.7.

As for `O=C(O)C1=COC(OC2OC(CO)C(O)C(O)C2O)C2C(CO)=CCC12` (stereo not given) [Geniposidic acid], the cell viability is 88.5.

With `Cc1cccc(CN2CCN(C(c3ccccc3)c3ccc(Cl)cc3)CC2)c1.Cl.Cl` (stereo not given) [Meclizine 2HCl], the cell viability amounted to 97.1.

`COC(c1ccccc1)(c1ccccc1)C(Oc1nc(C)cc(C)n1)C(=O)O` (stereo not given) [Ambrisentan] yielded a cell viability of 91.6.

In turn, `O=C(O)CSCC(=O)NC1CCSC1=O` (stereo not given) [Erdosteine] had a cell viability of 78.

In the case of `CS(=O)(=O)Nc1ccc([N+](=O)[O-])cc1Oc1ccccc1` [Nimesulide], the cell viability worked out at 102.

As to `Cc1ccc(-n2[nH]c(C)c(NN=C3C=CC=C(c4cccc(C(=O)O)c4)C3=O)c2=O)cc1C` [Eltrombopag], the cell viability worked out at 82.2.

`O=C(O)CCc1nc(-c2ccccc2)c(-c2ccccc2)o1` [Oxaprozin] returned a cell viability of 83.6.

In the case of `CCOC(=O)n1ccn(C)c1=S` [Carbimazole], the cell viability is 77.

Turning to `COC(=O)c1ccc2c(c1)NC(=O)C2=C(Nc1ccc(N(C)C(=O)CN2CCN(C)CC2)cc1)c1ccccc1` [Nintedanib (BIBF 1120)], the cell viability was 86.1.

For the compound `Cc1c(NC(=O)c2cccnc2)c(=O)n(-c2ccccc2)n1C` [Nifenazone], the cell viability was 117.

The compound `CCCCN1CCCCC1C(=O)Nc1c(C)cccc1C.Cl` (stereo not given) [Bupivacaine HCl] gave a cell viability of 113.

In turn, `COS(=O)(=O)[O-].C[N+]1(C)CCC(=C(c2ccccc2)c2ccccc2)CC1` [Diphemanil Methylsulfate] gave a cell viability of 96.8.

On to `Cc1cc(C=CC#N)cc(C)c1Nc1ccnc(Nc2ccc(C#N)cc2)n1` [Rilpivirine], for which the cell viability worked out at 84.7.

Regarding `Cn1c(=O)c2c(ncn2CC2OCCO2)n(C)c1=O` [Doxofylline], the cell viability was found to be 98.

The compound `Nc1ccc(S(N)(=O)=O)cc1` [Sulfanilamide] returned a cell viability of 84.

Consider `CO[C@H]1/C=C/O[C@@]2(C)Oc3c(C)c(O)c4c(O)c(c5c(nc6cc(C)ccn65)c4c3C2=O)NC(=O)/C(C)=C\C=C\[C@H](C)[C@H](O)[C@@H](C)[C@H](O)[C@@H](C)[C@H](OC(C)=O)[C@@H]1C` [Rifaximin (Xifaxan)], for which the cell viability was 110.

Regarding `NS(=O)(=O)c1cc2c(cc1Cl)NC(C(Cl)Cl)NS2(=O)=O` (stereo not given) [Trichlormethiazide], the cell viability amounted to 108.

`O=C(Oc1ccccc1C(=O)O)c1ccccc1O` [Sasapyrine] gave a cell viability of 108.

The values above are taken from the supplement of paper PMC8512760.
